# Results published in publication PMC12820563.
# Some of the results follow. The list includes weakly bound sequences.
# Biological target: T1, MBP-FoxP3dN (UniProt Q99JB6)
# T1 sequence: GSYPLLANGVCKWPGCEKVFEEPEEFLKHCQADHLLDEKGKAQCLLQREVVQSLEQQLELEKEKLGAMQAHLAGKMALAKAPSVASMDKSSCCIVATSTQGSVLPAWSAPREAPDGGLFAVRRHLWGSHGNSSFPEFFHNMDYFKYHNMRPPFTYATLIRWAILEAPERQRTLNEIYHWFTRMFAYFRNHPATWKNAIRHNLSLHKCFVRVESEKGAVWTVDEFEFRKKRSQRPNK
# Assay: PD-seq (MBP pull-down with sequencing)
# Details: 20 mM Tris-HCl pH 7.5, 100 mM NaCl, 1.5 mM MgCl2, 0.4 uM protein, 0.1 uM dsDNA library, 30 min, room temperature, amylose pull-down; high values mean tight binding; double strand, one strand shown
row,Sequence,binding signal (RPM ratio (pull-down/input))
1,GATGATTGTTCTCCCAGCTGATGAATTGATGCAATCGAGTAAACAAATTTTCCTAATCTTTCTGTTCAAGCGCCATCTAC,5.86
2,GATGATTGTTCTCCCAGCTGATGAATTACAAAACTCGAGTAAACAAATTTTCCTAATCTTTCTGTTCAAGCGCCATCTAC,0.374
3,GATGATTGTTCTCCCAGCTGATGAATTGCTAGATTCGAGTAAACAAATTTTCCTAATCTTTCTGTTCAAGCGCCATCTAC,0.584
4,GATGATTGTTCTCCCAGCTGATGAATTCAGGCGGTCGAGTAAACAAATTTTCCTAATCTTTCTGTTCAAGCGCCATCTAC,0.36
5,GATGATTGTTCTCCCAGCTGATGAATTACTGGTATCGAGTAAACAAATTTTCCTAATCTTTCTGTTCAAGCGCCATCTAC,0.49
6,GATGATTGTTCTCCCAGCTGATGAATTAAAGTCGTCGAGTAAACAAATTTTCCTAATCTTTCTGTTCAAGCGCCATCTAC,0.372
7,GATGATTGTTCTCCCAGCTGATGAATTTACAATATCGAGTAAACAAATTTTCCTAATCTTTCTGTTCAAGCGCCATCTAC,0.904
8,GATGATTGTTCTCCCAGCTGATGAATTTATTACCTCGAGTAAACAAATTTTCCTAATCTTTCTGTTCAAGCGCCATCTAC,1.79
9,GATGATTGTTCTCCCAGCTGATGAATTTGTTCTTTCGAGTAAACAAATTTTCCTAATCTTTCTGTTCAAGCGCCATCTAC,2.28
10,GATGATTGTTCTCCCAGCTGATGAATTTGGATGTTCGAGTAAACAAATTTTCCTAATCTTTCTGTTCAAGCGCCATCTAC,1.52
11,GATGATTGTTCTCCCAGCTGATGAATTTCTAAGATCGAGTAAACAAATTTTCCTAATCTTTCTGTTCAAGCGCCATCTAC,0.171
12,GATGATTGTTCTCCCAGCTGATGAATTATGACAGTCGAGTAAACAAATTTTCCTAATCTTTCTGTTCAAGCGCCATCTAC,0.573
13,GATGATTGTTCTCCCAGCTGATGAATTGGAGGATTCGAGTAAACAAATTTTCCTAATCTTTCTGTTCAAGCGCCATCTAC,0.292
14,GATGATTGTTCTCCCAGCTGATGAATTCCATCACTCGAGTAAACAAATTTTCCTAATCTTTCTGTTCAAGCGCCATCTAC,0.74
15,GATGATTGTTCTCCCAGCTGATGAATTTGGTAATTCGAGTAAACAAATTTTCCTAATCTTTCTGTTCAAGCGCCATCTAC,1.15
16,GATGATTGTTCTCCCAGCTGATGAATTCTCAAATTCGAGTAAACAAATTTTCCTAATCTTTCTGTTCAAGCGCCATCTAC,0.233
17,GATGATTGTTCTCCCAGCTGATGAATTATCAGCGTCGAGTAAACAAATTTTCCTAATCTTTCTGTTCAAGCGCCATCTAC,0.46
18,GATGATTGTTCTCCCAGCTGATGAATTGTGTGTGTCGAGTAAACAAATTTTCCTAATCTTTCTGTTCAAGCGCCATCTAC,5.21
19,GATGATTGTTCTCCCAGCTGATGAATTGATCTCCTCGAGTAAACAAATTTTCCTAATCTTTCTGTTCAAGCGCCATCTAC,0.3
20,GATGATTGTTCTCCCAGCTGATGAATTTATCCGATCGAGTAAACAAATTTTCCTAATCTTTCTGTTCAAGCGCCATCTAC,0.279
21,GATGATTGTTCTCCCAGCTGATGAATTTAATCAGTCGAGTAAACAAATTTTCCTAATCTTTCTGTTCAAGCGCCATCTAC,0.294

row,Sequence,binding signal (RPM ratio (pull-down/input))
1,GATGATTGTTCTCCCAGCTGATGAATTACAGCACTCGAGTAAACAAATTTTCCTAATCTTTCTGTTCAAGCGCCATCTAC,0.595
2,GATGATTGTTCTCCCAGCTGATGAATTACTTTGATCGAGTAAACAAATTTTCCTAATCTTTCTGTTCAAGCGCCATCTAC,0.326
3,GATGATTGTTCTCCCAGCTGATGAATTTGGTTAGTCGAGTAAACAAATTTTCCTAATCTTTCTGTTCAAGCGCCATCTAC,2.03
4,GATGATTGTTCTCCCAGCTGATGAATTACTGATCTCGAGTAAACAAATTTTCCTAATCTTTCTGTTCAAGCGCCATCTAC,0.328
5,GATGATTGTTCTCCCAGCTGATGAATTAGGGCGGTCGAGTAAACAAATTTTCCTAATCTTTCTGTTCAAGCGCCATCTAC,0.305
6,GATGATTGTTCTCCCAGCTGATGAATTTTGTTGGTCGAGTAAACAAATTTTCCTAATCTTTCTGTTCAAGCGCCATCTAC,7.07
7,GATGATTGTTCTCCCAGCTGATGAATTCCTCACATCGAGTAAACAAATTTTCCTAATCTTTCTGTTCAAGCGCCATCTAC,0.377
8,GATGATTGTTCTCCCAGCTGATGAATTCACGTTGTCGAGTAAACAAATTTTCCTAATCTTTCTGTTCAAGCGCCATCTAC,0.685
9,GATGATTGTTCTCCCAGCTGATGAATTTTTGGAATCGAGTAAACAAATTTTCCTAATCTTTCTGTTCAAGCGCCATCTAC,0.241
10,GATGATTGTTCTCCCAGCTGATGAATTAAGGCACTCGAGTAAACAAATTTTCCTAATCTTTCTGTTCAAGCGCCATCTAC,0.76
11,GATGATTGTTCTCCCAGCTGATGAATTATGTTTGTCGAGTAAACAAATTTTCCTAATCTTTCTGTTCAAGCGCCATCTAC,7.57
12,GATGATTGTTCTCCCAGCTGATGAATTTGTAGTGTCGAGTAAACAAATTTTCCTAATCTTTCTGTTCAAGCGCCATCTAC,5.37
13,GATGATTGTTCTCCCAGCTGATGAATTCATGGATTCGAGTAAACAAATTTTCCTAATCTTTCTGTTCAAGCGCCATCTAC,0.338
14,GATGATTGTTCTCCCAGCTGATGAATTACTCGTCTCGAGTAAACAAATTTTCCTAATCTTTCTGTTCAAGCGCCATCTAC,0.295
15,GATGATTGTTCTCCCAGCTGATGAATTACATGCCTCGAGTAAACAAATTTTCCTAATCTTTCTGTTCAAGCGCCATCTAC,0.891
16,GATGATTGTTCTCCCAGCTGATGAATTGGGGAGGTCGAGTAAACAAATTTTCCTAATCTTTCTGTTCAAGCGCCATCTAC,0.235
17,GATGATTGTTCTCCCAGCTGATGAATTTGTACCGTCGAGTAAACAAATTTTCCTAATCTTTCTGTTCAAGCGCCATCTAC,2.56
18,GATGATTGTTCTCCCAGCTGATGAATTGTCCAATTCGAGTAAACAAATTTTCCTAATCTTTCTGTTCAAGCGCCATCTAC,0.282
19,GATGATTGTTCTCCCAGCTGATGAATTCAACTGGTCGAGTAAACAAATTTTCCTAATCTTTCTGTTCAAGCGCCATCTAC,0.264
20,GATGATTGTTCTCCCAGCTGATGAATTCGGAACCTCGAGTAAACAAATTTTCCTAATCTTTCTGTTCAAGCGCCATCTAC,0.269
21,GATGATTGTTCTCCCAGCTGATGAATTTTACCTGTCGAGTAAACAAATTTTCCTAATCTTTCTGTTCAAGCGCCATCTAC,0.339

row,Sequence,binding signal (RPM ratio (pull-down/input))
1,GATGATTGTTCTCCCAGCTGATGAATTAATCTTTTCGAGTAAACAAATTTTCCTAATCTTTCTGTTCAAGCGCCATCTAC,0.33
2,GATGATTGTTCTCCCAGCTGATGAATTCCTTGAATCGAGTAAACAAATTTTCCTAATCTTTCTGTTCAAGCGCCATCTAC,0.187
3,GATGATTGTTCTCCCAGCTGATGAATTTTTCGTGTCGAGTAAACAAATTTTCCTAATCTTTCTGTTCAAGCGCCATCTAC,0.363
4,GATGATTGTTCTCCCAGCTGATGAATTCGCGAAGTCGAGTAAACAAATTTTCCTAATCTTTCTGTTCAAGCGCCATCTAC,0.226
5,GATGATTGTTCTCCCAGCTGATGAATTGACTAGGTCGAGTAAACAAATTTTCCTAATCTTTCTGTTCAAGCGCCATCTAC,0.244
6,GATGATTGTTCTCCCAGCTGATGAATTAGTGGTGTCGAGTAAACAAATTTTCCTAATCTTTCTGTTCAAGCGCCATCTAC,3.01
7,GATGATTGTTCTCCCAGCTGATGAATTAGCAAAATCGAGTAAACAAATTTTCCTAATCTTTCTGTTCAAGCGCCATCTAC,0.271
8,GATGATTGTTCTCCCAGCTGATGAATTACCATCATCGAGTAAACAAATTTTCCTAATCTTTCTGTTCAAGCGCCATCTAC,0.663
9,GATGATTGTTCTCCCAGCTGATGAATTGACAATCTCGAGTAAACAAATTTTCCTAATCTTTCTGTTCAAGCGCCATCTAC,0.545
10,GATGATTGTTCTCCCAGCTGATGAATTCGGTGGTTCGAGTAAACAAATTTTCCTAATCTTTCTGTTCAAGCGCCATCTAC,1.1
11,GATGATTGTTCTCCCAGCTGATGAATTCTTGACGTCGAGTAAACAAATTTTCCTAATCTTTCTGTTCAAGCGCCATCTAC,0.254
12,GATGATTGTTCTCCCAGCTGATGAATTAACAAGCTCGAGTAAACAAATTTTCCTAATCTTTCTGTTCAAGCGCCATCTAC,0.36
13,GATGATTGTTCTCCCAGCTGATGAATTTACACACTCGAGTAAACAAATTTTCCTAATCTTTCTGTTCAAGCGCCATCTAC,0.746
14,GATGATTGTTCTCCCAGCTGATGAATTGTCTTCATCGAGTAAACAAATTTTCCTAATCTTTCTGTTCAAGCGCCATCTAC,0.483
15,GATGATTGTTCTCCCAGCTGATGAATTTCTGAATTCGAGTAAACAAATTTTCCTAATCTTTCTGTTCAAGCGCCATCTAC,0.597
16,GATGATTGTTCTCCCAGCTGATGAATTATTAAAATCGAGTAAACAAATTTTCCTAATCTTTCTGTTCAAGCGCCATCTAC,0.282
17,GATGATTGTTCTCCCAGCTGATGAATTTTACATGTCGAGTAAACAAATTTTCCTAATCTTTCTGTTCAAGCGCCATCTAC,0.427
18,GATGATTGTTCTCCCAGCTGATGAATTCGTCCTCTCGAGTAAACAAATTTTCCTAATCTTTCTGTTCAAGCGCCATCTAC,0.565
19,GATGATTGTTCTCCCAGCTGATGAATTCGCACGTTCGAGTAAACAAATTTTCCTAATCTTTCTGTTCAAGCGCCATCTAC,0.47
20,GATGATTGTTCTCCCAGCTGATGAATTGTCGGTATCGAGTAAACAAATTTTCCTAATCTTTCTGTTCAAGCGCCATCTAC,0.636
21,GATGATTGTTCTCCCAGCTGATGAATTCACTAAGTCGAGTAAACAAATTTTCCTAATCTTTCTGTTCAAGCGCCATCTAC,0.193
